Data published in PubChem BioAssay AID1347165 (National Center for Advancing Translational Sciences (NCATS), 2019).
About 5,700 (2.6%) of roughly 220,000 compounds were called active. The shares of active, inactive and inconclusive entries below differ from those in the screen. The call rests on the fitted dose curve; in most records, active means well fitted inhibition curve with a large enough effect; inconclusive means small, poorly fitted or top-dose-only effect; inactive means no such curve, though single readings can be large or run the other way. Potencies of inconclusive entries are doubtful fits and often do not repeat.

Molecular target: Lysine-specific demethylase 5B (Homo sapiens) (UniProt Q9UGL1)
Assay: Primary screen for KDM5B Histone Demethylases FDH-coupled qHTS; further: nearly all actives have a fitted effect of over 70% in size; on activity change, negative = inhibition: 0% is about no effect
Conditions: FDH-coupled NADH fluorescence (FDH is formaldehyde dehydrogenase); activity change, negative = inhibition: at 57.7 µM (top of the series) unless noted
Outline: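 KDM5BΔAP (200 nM final) in 50 mM HEPES pH 7.5, 0.01% Tween-20 was preincubated 10 min at RT with compound over a concentration range. Substrate mix (H3K4me3 12.5 µM, α-KG 25 µM, Fe²⁺, ascorbate, NAD⁺, FDH) was added, and NADH fluorescence change over 30 min gave dose-response curves.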
Potency means the concentration at half of the fitted maximal effect; tags describe the fitted curve by direction and shape.

Sequence of UniProt Q9UGL1 (Q9UGL1 whole entry, looked up): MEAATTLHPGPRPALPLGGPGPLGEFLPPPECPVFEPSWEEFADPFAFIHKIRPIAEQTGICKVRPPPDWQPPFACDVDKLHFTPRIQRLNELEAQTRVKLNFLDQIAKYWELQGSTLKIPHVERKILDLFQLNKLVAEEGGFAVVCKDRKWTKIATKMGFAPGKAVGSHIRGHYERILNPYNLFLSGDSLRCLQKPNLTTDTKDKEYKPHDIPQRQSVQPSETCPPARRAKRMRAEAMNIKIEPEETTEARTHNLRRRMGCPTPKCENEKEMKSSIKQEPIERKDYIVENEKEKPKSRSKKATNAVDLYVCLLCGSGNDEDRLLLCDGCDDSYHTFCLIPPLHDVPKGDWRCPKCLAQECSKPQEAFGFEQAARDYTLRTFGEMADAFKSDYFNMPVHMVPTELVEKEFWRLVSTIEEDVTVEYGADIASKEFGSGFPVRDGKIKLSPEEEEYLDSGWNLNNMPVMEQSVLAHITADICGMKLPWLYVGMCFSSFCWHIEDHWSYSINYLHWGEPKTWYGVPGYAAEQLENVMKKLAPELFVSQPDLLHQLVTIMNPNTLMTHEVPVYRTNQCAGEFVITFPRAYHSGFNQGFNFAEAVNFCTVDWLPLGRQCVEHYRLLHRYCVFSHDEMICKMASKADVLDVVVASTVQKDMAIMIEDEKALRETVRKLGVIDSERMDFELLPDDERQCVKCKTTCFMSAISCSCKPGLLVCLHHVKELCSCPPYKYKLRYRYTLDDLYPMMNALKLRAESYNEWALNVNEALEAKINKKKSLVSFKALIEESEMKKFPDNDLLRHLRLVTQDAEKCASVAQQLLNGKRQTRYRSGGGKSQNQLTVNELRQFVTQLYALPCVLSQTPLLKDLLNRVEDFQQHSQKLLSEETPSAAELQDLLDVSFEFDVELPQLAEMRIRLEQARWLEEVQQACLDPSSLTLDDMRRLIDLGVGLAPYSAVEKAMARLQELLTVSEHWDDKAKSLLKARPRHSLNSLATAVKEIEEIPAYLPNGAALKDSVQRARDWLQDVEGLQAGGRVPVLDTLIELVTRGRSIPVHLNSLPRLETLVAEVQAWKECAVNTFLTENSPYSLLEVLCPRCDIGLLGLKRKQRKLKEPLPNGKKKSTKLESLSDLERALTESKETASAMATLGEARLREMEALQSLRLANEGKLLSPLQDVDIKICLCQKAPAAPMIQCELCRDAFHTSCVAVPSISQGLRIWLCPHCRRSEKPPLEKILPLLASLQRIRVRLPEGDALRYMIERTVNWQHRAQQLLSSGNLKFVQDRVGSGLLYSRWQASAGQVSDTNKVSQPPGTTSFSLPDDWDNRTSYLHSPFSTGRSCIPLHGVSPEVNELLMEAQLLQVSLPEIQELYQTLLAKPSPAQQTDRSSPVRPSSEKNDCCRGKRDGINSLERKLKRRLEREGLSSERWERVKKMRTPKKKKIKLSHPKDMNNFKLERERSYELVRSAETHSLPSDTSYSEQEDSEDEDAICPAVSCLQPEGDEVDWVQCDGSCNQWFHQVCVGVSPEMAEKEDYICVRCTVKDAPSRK

SMILES	Potency	activity change, negative = inhibition
COCC(NC(=O)c1csc(-c2cccs2)n1)c1ccnn1C (stereo unspecified)	inconclusive: 11.2 µM [inhibitor, partial curve]	–
CCC1CCCCN1C(=O)CCc1ccsc1 (stereo unspecified)	inactive	–
CSc1ccc(-c2nc3cccc(C)n3c2Nc2ccc(Cl)cc2)cc1	inconclusive: 2.24 µM [inhibitor, partial curve, poor fit]	–
O=C1COc2ccc(NCCOc3ccccc3)nc2CN1Cc1ccccc1F	inconclusive: 35.5 µM [inhibitor, single point]	–
Cc1cccc(CCCNC(=O)C2CC(=O)N(Cc3cccnc3)C2)c1 (stereo unspecified)	inactive	–
COC(=O)c1ccccc1NC(=O)N1CCC(N2CCN(Cc3ccc(F)cc3)C(=O)C2=O)CC1	inconclusive: 28.2 µM [inhibitor, partial curve, poor fit]	–
CC(C)(C)C(=O)CSc1nccc(C(F)(F)F)n1	inactive	–
C#CCNC(=O)c1nc(-c2ccc(Cl)cc2)c2cnccn12	active: 39.8 µM	–
COCCOc1ccc2c(n1)CCN(C(=O)c1nn(C)c3ccccc13)C2	inconclusive: 35.5 µM [inhibitor, partial curve, poor fit]	–
CNC(=S)NNC(=O)c1ccccc1	inactive	–
COCCNC(=O)c1cc(-c2ccc(Cl)cc2Cl)nc2c1cnn2C	inconclusive: 56.2 µM [inhibitor, partial curve, poor fit]	–
CCn1c(=O)cc(OCC(=O)N(C)c2cc(Cl)ccc2C)c2ccccc21	inconclusive: 15.8 µM [inhibitor, partial curve, poor fit]	–
CCc1nn(C(C)C(=O)NCc2ccccc2Cl)c(=O)c2cc3occc3n12 (stereo unspecified)	inactive	–
COc1ccc(OC)c(-c2nc3ccccc3nc2-c2ccccc2)c1	inconclusive: 25.1 µM [inhibitor, single point]	–
Cc1ccc(CN2CCC(N3CC(OCC4CC4)C34CCOCC4)CC2)s1 (stereo unspecified)	inconclusive: 20 µM [inhibitor, partial curve, poor fit]	–
CN(CC(=O)NCc1nc(-c2ccccc2)no1)S(=O)(=O)c1ccc2ccccc2c1	inactive	–
O=C(NCc1ccc(F)cc1)C1(c2cccs2)CCOCC1	–	inconclusive: -30.2% [inhibitor]
Cc1cccc(C)c1Nc1c(-c2ccccc2O)nc2cnccn12	inactive	–
CC(C)c1ccc(C2C3=C(COC3=O)Nc3c2c(=O)n(C)c(=O)n3C)cc1 (stereo unspecified)	inconclusive: 28.2 µM [inhibitor, partial curve, poor fit]	–
CC(C)(C)c1ccc(/C=C(\C#N)C(=O)NC2CC2)cc1	inconclusive: 22.4 µM [inhibitor, partial curve, poor fit]	–
CC(CCc1ccccc1)NC(=O)Cn1c(=O)nc(-c2ccccc2)c2ccccc21 (stereo unspecified)	–	inconclusive: -30.2% [inhibitor]
Cc1ccccc1Nc1c(-c2cccnc2)nc2ccc(Cl)cn12	inconclusive: 25.1 µM [inhibitor, partial curve, poor fit]	–

SMILES	Potency	activity change, negative = inhibition
C/C(=N/NC(=O)c1ccccc1)c1ccc(C)cc1	inactive	–
Cc1ccc2cc(C(=O)N3CCCC(CNS(C)(=O)=O)C3)[nH]c2c1 (stereo unspecified)	inactive	–
O=C(CCc1nc2ccccc2s1)N[C@H](c1ccccn1)C1CC(O)C1 (stereo partly specified)	inactive	–
Cc1ccc(-c2cn3c(n2)sc2cc(C(=O)NCCCc4ccccc4)ccc23)c(C)c1	inconclusive: 28.2 µM [inhibitor, partial curve, poor fit]	–
CN1c2cc(C(=O)Nc3ccccc3)ccc2C(=O)N2CCCCCC21 (stereo unspecified)	inconclusive: 28.2 µM [inhibitor, partial curve, poor fit]	–
Cc1nc2cc(NC(C)C(=O)Nc3ccccc3C#N)ccc2o1 (stereo unspecified)	inconclusive: 22.4 µM [inhibitor, single point]	–
COc1ccc2[nH]cc(CCNC(=O)c3ccc(N4CC5CC(C4)[C@H]4CCCC(=O)N4C5)nc3)c2c1 (stereo partly specified)	inconclusive: 22.4 µM [inhibitor, partial curve, poor fit]	–
CC1CCCN(S(=O)(=O)c2ccc3c(c2)c(=O)nc2ccccn23)C1 (stereo unspecified)	inconclusive: 31.6 µM [inhibitor, partial curve, poor fit]	–
Cc1nc(C)c(C(=O)N2CCC(N3CC4CC(C3)[C@H]3CCCC(=O)N3C4)CC2)s1 (stereo partly specified)	active: 15.8 µM	–
C[C@]1(CO)[C@H]2Cc3sc(NC(=O)c4ccc(F)cc4)nc3[C@@H](CC(=O)NCc3ccccc3)[C@]2(C)CC[C@H]1O	inconclusive: 39.8 µM [inhibitor, single point]	–
O=C(NCCCN1CCOCC1)c1ccc2c(c1)N(Cc1cccc(Cl)c1)C(=O)c1ccccc1S2	inconclusive: 35.5 µM [inhibitor, single point]	–
O=C(Cn1cc(S(=O)(=O)c2ccccc2)c(=O)c2cc(Cl)ccc21)Nc1ccc2c(c1)OCO2	inconclusive: 15.8 µM [inhibitor, partial curve, poor fit]	–
CN(CCO)C(=O)c1ccc(N)cc1	inactive	–
COc1ccc(-c2cc(C(F)(F)F)nc(SCC(=O)NCC(C)C)n2)cc1OC	inconclusive: 1.58 µM [inhibitor, partial curve, poor fit]	–
COc1ccccc1NC(=O)C1=C(C)Nc2nc3ccccc3n2C1c1cccc(OC)c1OC (stereo unspecified)	–	inconclusive: -35.8% [inhibitor]
Cc1ccc(Nc2c(-c3ccccn3)nc3cc(C)ccn23)cc1	inconclusive: 39.8 µM [inhibitor, single point]	–
COc1ccc(C(=O)N2CCC[C@H]2c2nc(-c3ccc(OC)c(OC)c3)no2)cc1F	inconclusive: 31.6 µM [inhibitor, partial curve, poor fit]	–
CN(C)c1nc2c(c(=O)[nH]1)CCN(Cc1ccc(F)cc1)CC2	inactive	–
COc1ccc(COC(=O)C2=C(C)NC3=C(C(=O)CCC3)C2c2cccc(Cl)c2)cc1 (stereo unspecified)	inactive	–
O=C(Cc1ccc(-c2ccccc2)cc1)NCCS(=O)(=O)N1CCN(c2ccccc2)CC1	inconclusive: 0.794 µM [inhibitor, full curve, poor fit]	–
CC(c1ccc(S(N)(=O)=O)cc1)N(C)C(=O)CCc1ncc(-c2ccccc2Cl)o1 (stereo unspecified)	inactive	–
CC1(C)CCC(N)c2ccccc21 (stereo unspecified)	inactive	–

SMILES	Potency	activity change, negative = inhibition
Cc1ccc(O)c(C)n1	inconclusive: 39.8 µM [inhibitor, single point]	–
CC(C)(CO)NC(=O)c1nc(-c2ccc(COc3ccc4c(c3)OCO4)cc2)no1	inactive	–
COc1cc(NC(=O)c2cc3n(n2)CC(c2ccc(Br)cc2)OC3)cc(OC)c1OC (stereo unspecified)	active: 31.6 µM	–
Cc1cc(=O)oc2cc(OCC(=O)NCCc3ccccc3)ccc12	inconclusive: 20 µM [inhibitor, single point]	–
CC1=C(C(=O)N(C)C)C(c2ccc(Cl)cc2)N2C(CC(=O)NCC3CCCO3)=CSC2=N1 (stereo unspecified)	inconclusive: 20 µM [inhibitor, partial curve]	–
Cc1cc(C)c2nonc2c1S(=O)(=O)N1C[C@@H](N(C)C)[C@H](C(C)C)C1	inconclusive: 20 µM [inhibitor, partial curve, poor fit]	–
Cc1nc(N2CCS(=O)CC2)c2cc(-c3ccccc3)sc2n1	inconclusive: 22.4 µM [inhibitor, partial curve, poor fit]	–
OCC1CN(C2CCC2)CC12CCN(Cc1cc(F)c(F)c(F)c1)CC2 (stereo unspecified)	inconclusive: 14.1 µM [inhibitor, partial curve]	–
Cc1noc(-c2ccc(OC(F)(F)F)cc2)c1C(=O)NCCC(c1ccccc1)c1ccccc1	inconclusive: 31.6 µM [inhibitor, single point]	–
COc1cc(C(=O)N2CCN(c3nccs3)CC2)cc(Cl)c1OC	inactive	–
CC(=O)Nc1cccc(-n2cc3c(c2-c2ccccc2Cl)c(=O)n(C)c(=O)n3C)c1	inconclusive: 31.6 µM [inhibitor, partial curve, poor fit]	–
COc1ccc(-c2cc3c(=O)n(CCNC(=O)c4ccccn4)ccn3n2)cc1	inconclusive: 25.1 µM [inhibitor, partial curve, poor fit]	–
CCN1CCc2c(sc(-n3cccc3)c2CNC(=O)NCc2ccc(C)cc2)C1	inconclusive: 39.8 µM [inhibitor, single point]	–
CCCC(=O)Nc1ccc(C(=O)N2CCc3nc(C)n(C)c(=O)c3CC2)cc1	inconclusive: 17.8 µM [inhibitor, partial curve, poor fit]	–
CN(C)C(C(=O)N1CCN(c2ccc(C#N)cc2)CC1)c1ccccc1F (stereo unspecified)	inconclusive: 35.5 µM [inhibitor, single point]	–
COc1ccccc1CNC(=O)c1nccnc1N	inconclusive: 22.4 µM [inhibitor, partial curve, poor fit]	–
CC(C)(C(=O)N1CCN(C(=O)c2cc(=O)[nH]c3ccccc23)CC1)c1ccccc1	inconclusive: 25.1 µM [inhibitor, single point]	–
Fc1ccccc1N1CCN(c2nc3ccccc3c3nc(-c4ccccc4)nn23)CC1	inconclusive: 20 µM [inhibitor, partial curve, poor fit]	–
CSc1ccc(-c2nnc(NC(=O)c3ccc4c(c3)OCCO4)o2)cc1	inconclusive: 1.41 µM [inhibitor, partial curve, poor fit]	–
Cc1cc(C)n(-c2nc3c(c(=O)[nH]c(=O)n3C)n2C/C=C/c2ccccc2)n1	inactive	–
Cc1ccc(C(=O)N2CCC3(CC2)CC(N(Cc2ccc(F)cc2)C2CC2)CCO3)cn1 (stereo unspecified)	inactive	–
NCCO[C@H]1C[C@@H](O)C12CCN(S(=O)(=O)c1cccnc1)CC2	inconclusive: 3.55 µM [inhibitor, partial curve, poor fit]	–
